Assay results reported in publication PMC12136788.
The list shows a part of the results.

T1: UNK ZnF1-6 (called full-length) (human, UniProt Q9C0B0 30-357)
T1 sequence: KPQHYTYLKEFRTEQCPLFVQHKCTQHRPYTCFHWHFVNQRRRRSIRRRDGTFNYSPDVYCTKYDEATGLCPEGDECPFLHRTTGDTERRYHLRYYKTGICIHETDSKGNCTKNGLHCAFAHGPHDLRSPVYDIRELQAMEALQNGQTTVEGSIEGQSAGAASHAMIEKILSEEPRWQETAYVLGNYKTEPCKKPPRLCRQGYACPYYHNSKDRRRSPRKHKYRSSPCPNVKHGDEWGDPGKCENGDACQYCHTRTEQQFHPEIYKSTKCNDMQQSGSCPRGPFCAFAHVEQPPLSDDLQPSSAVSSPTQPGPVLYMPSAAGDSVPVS

B1: ENSG00000113758:stop:overlap|stop_codon|ENSG00000113758|stop_codon|NA|stop_codon (ssRNA)
RNA: GGGAGUUCUACAGUCCGACGAUCUCACAUGCUGGGAUGCAGACCCAGUUCCAGAAGAGGAGGAGGGCUUCGAGGGUGGUGAUUAGCGGUGGCGCCAGCCCUAGGCUACCCUUGCCAAGGCCGCCCACCUGCAUCAGCCUCUGGCAACAGAGGAUUGAGCAUCA
B2: chr12:49764829:49764866:+|3pUTR|ENSG00000139644|msi1_unk|total|mutant (ssRNA)
RNA: GGGAGUUCUACAGUCCGACGAUCACUUUUAAAGAAAAUACCUAACAGAUUUUUAAUACCGUUAUCUCUACCACUUUCUUUUCCCGUUUCUUGAUUUUCAGCUCAGGCUGCAUUCUAACUCAUACUGUGAAGACAAAGGUGUUUCAACAGAGGAUUGAGCAUCA
B3: chr16:74503563:74503676:-|CDS|ENSG00000090863|unk|total|mutant (ssRNA)
RNA: GGGAGUUCUACAGUCCGACGAUCGGCAACAUCACUGAGUAUCAGUGUCACCAGUACAUUACCAAGAUGACGGCCAUCAUUUUCCGUGAUUACCGUUUAAUCUGUGGCUUCAUGGAUGACUGCAAAAAUGACAUCAACAUUCUGCAACAGAGGAUUGAGCAUCA
B4: chr15:71825291:71825392:-|3pUTR|ENSG00000066933|unk|FALSE|unique (ssRNA)
RNA: GGGAGUUCUACAGUCCGACGAUCUGAAGCUAUUUUUGUUAAUAUUCUGGUUACUGAAGUUUAUUGUAAAUAUGUAUGUAUAGUAGGCAUAUUUCUUUUUAACCUUGUGCUUCCCUCCUUCCCAUGGAAUUUCUUCCCACAGAUCAACAGAGGAUUGAGCAUCA
B5: chr12:1780521:1780622:+|CDS|ENSG00000006831|msi1|total|mutant (ssRNA)
RNA: GGGAGUUCUACAGUCCGACGAUCCCCAAAUAUCUCCUUUGUGGCCCCUCUGCAAGAGAAGGUGGUCUUUGGAUUAUUUUUCUCCGGAGCCAUUCUCUGCCUUUCUUUUUCAUGGCUCUUCCACACAGUCUACUGCCACUCAGACAACAGAGGAUUGAGCAUCA
B6: chr2:69942770:69942871:+|3pUTR|ENSG00000059728|unk|total|mutant (ssRNA)
RNA: GGGAGUUCUACAGUCCGACGAUCUGUUUCCAGAUGUUUCUUUAUGUAAAUAUGACGCCAAUGUAAAUCCUGUGUCAAGAUCACCGAGAAUGGUGCUUUUUACUACAGUCCGCACAUGCAUUUUCCGAAACUACUACAUGUUUUCAACAGAGGAUUGAGCAUCA
B7: chr7:127374855:127374969:-|CDS|ENSG00000048405|unk|total|mutant (ssRNA)
RNA: GGGAGUUCUACAGUCCGACGAUCCCCCGAAGCCAUAUAUCCAAGUGUGGACAAACGAGAAUAUAUUAUUAAGCCCGAACCCACCGAAACUAAUCAAAAUGCAGUAUUUCAAUAUAUUUCGAGGACUGAUAAUCCUAUUGAAGUCAACAGAGGAUUGAGCAUCA
B8: ENSG00000124766:be:win_2151|3pUTR|ENSG00000124766|bound_else_gene|NA|bound_elsewhere_windowed (ssRNA)
RNA: GGGAGUUCUACAGUCCGACGAUCGUGUGACCGGCGCUAGGAAAUGACCCGAGAACCCCGUUGGAAGCGCAGCAGCGGGAGCUAGGGGCGGGGGCGGAGGAGGACACGAACUGGAAGGGGGUUCACGGUCAAACUGAAAUGGAUCAACAGAGGAUUGAGCAUCA
B9: ENSG00000189184:stop:overlap|stop_codon|ENSG00000189184|stop_codon|NA|stop_codon (ssRNA)
RNA: GGGAGUUCUACAGUCCGACGAUCUGGAUGCCAGUGAACUGGUGGCAGAGAUUAACAAACUGCUUCAAGAUGUCCGCCAGAGCUAGGAGAUUUUAGCGAAGCAUUUUUGUUUCCAUGUAUAUGGAAAUAGGGAACAACAACAACCAACAGAGGAUUGAGCAUCA
B10: chr7:6403675:6403689:+|3pUTR|ENSG00000136238|msi1_unk|FALSE|overlapping (ssRNA)
RNA: GGGAGUUCUACAGUCCGACGAUCACUGUCACUUGACCAAUACUGACCCUCUUUACCUCGCCCACGCGGACACACGCCUCCUGUAGUCGCUUUGCCUAUUGAUGUUCCUUUGGGUCUGUGAGGUUCUGUAAACUGUGCUAGUGCCAACAGAGGAUUGAGCAUCA
B11: chr7:101138926:101139078:+|3pUTR|ENSG00000106366|msi1|FALSE|unique (ssRNA)
RNA: GGGAGUUCUACAGUCCGACGAUCUAUUUUAAAGACCAAUUUAUGGGAGAAUUGCACACAGAUGUGAAAUGAAUGUAAUCUAAUAGAAGCCUAAUCAGCCCACCAUGUUCUCCACUGAAAAAUCCUCUUUCUUUGGGGUUUUUCCAACAGAGGAUUGAGCAUCA
B12: chr9:128583791:128583907:+|CDS|ENSG00000197694|unk|FALSE|bound_elsewhere (ssRNA)
RNA: GGGAGUUCUACAGUCCGACGAUCCAACCAGCAACAGCAAUUUAAUCGCAAUGUUGAGGAUAUUGAAUUGUGGCUAUAUGAAGUAGAAGGUCACUUGGCUUCGGAUGAUUACGGCAAAGAUCUUACCAAUGUGCAGAACCUCCACAACAGAGGAUUGAGCAUCA
B13: chr5:91369659:91369760:-|3pUTR|ENSG00000113369|msi1|total|mutant (ssRNA)
RNA: GGGAGUUCUACAGUCCGACGAUCUCAGCAUUUUCCAAGGUACCAAGUGUACUUAUUUUGUUGUUGUUGUUGUUGUUGUAUUUCCGAAGGAAUUCAGCUCUGAUGUUUUUAAAGAAAACCAGCAUCUCUGAUGUUGCAACAUACCAACAGAGGAUUGAGCAUCA
B14: ENSG00000107863:be:win_3851|CDS|ENSG00000107863|bound_else_gene|NA|bound_elsewhere_windowed (ssRNA)
RNA: GGGAGUUCUACAGUCCGACGAUCUGGCAGAAAAUUCAGAAAAAAAUAAGAUGGAACCAAGAAACCUAGCAAUAGUGUUUGGUCCCACCCUUGUUCGAACAUCAGAAGACAACAUGACCCACAUGGUCACCCACAUGCCUGACCCAACAGAGGAUUGAGCAUCA
B15: chr15:22866942:22867043:+|3pUTR|ENSG00000140157|msi1|total|mutant (ssRNA)
RNA: GGGAGUUCUACAGUCCGACGAUCUAAAGAUUUCACUAAUUUGGACCAAGAAAUUACUUUUCUUGUAUUUAAACAAACAAUGGCCGCUCACUAAAAUGACCUCAGCACAUGACGAUUUCUAUUAACAUUUUAUUGUUGCCGAAGCAACAGAGGAUUGAGCAUCA
B16: chr10:43183422:43183523:+|CDS|ENSG00000169826|msi1|FALSE|bound_elsewhere (ssRNA)
RNA: GGGAGUUCUACAGUCCGACGAUCUAAAGCCAUGAAUGAGGCCUCUCACUCCCACCUGGGAAUGCUGGUCUUCAGGGAGGAAAUAGAGACGCAUCUUCAUAAACAGGCAUACAGGACAAACAGUGAAGCUGUUGGUUGAAAUCACAACAGAGGAUUGAGCAUCA
B17: chr4:138171112:138171219:-|3pUTR|ENSG00000151012|msi1|total|mutant (ssRNA)
RNA: GGGAGUUCUACAGUCCGACGAUCUUUUUUUUUUUCACAUCAGUUUGAUCAGGAAAGUGUAUAACACAUCUCCGAGCAAGAGUCCGUUUGGUAUUAAAUCCUCAUCCGAACAACCACCUGUUUCACUAAUAACUUACCCCUGAUCAACAGAGGAUUGAGCAUCA
B18: chr8:27776916:27777017:+|CDS|ENSG00000171320|unk|total|mutant (ssRNA)
RNA: GGGAGUUCUACAGUCCGACGAUCAAACCACAAGUUACACUCCAGGGUGGAGCAGCAUUUUUUGUCCGAAAAAAAUCUUCUCUCCGAAAAUCGUCCCUGGAAAAUGAGCCGUCACUGGGACGCACCCAAAAGAGUAAAUCAGAACAACAGAGGAUUGAGCAUCA
B19: chr16:57472207:57472321:-|3pUTR|ENSG00000125170|unk|total|mutant (ssRNA)
RNA: GGGAGUUCUACAGUCCGACGAUCUCAAACUUUUGGUUGUGUGGGGUUUUUUGUUGUUUUUUGGGUUUUGUUUUUUAAUACUUCCGGGUCCUGAUUUGUGGGAACAGACCUUCUUGUAAAUAACCACUAUUUGAGUUGUGGCAGCAACAGAGGAUUGAGCAUCA
B20: chr7:32869766:32869881:-|CDS|ENSG00000170852|unk|FALSE|bound_elsewhere (ssRNA)
RNA: GGGAGUUCUACAGUCCGACGAUCAUGUACUGUUAUUUUCCAAGGUCUGACUCAUGGGUAGAAAUGGCCAUGAGACAGACUAGUAGGUCCUUUGCUUCAGCUGCAGCUUUUGGUGAUAAAAUUUUCUAUAUUGGAGGGUUGCAUCAACAGAGGAUUGAGCAUCA
B21: chr1:19339193:19339294:-|3pUTR|ENSG00000077549|msi1|total|mutant (ssRNA)
RNA: GGGAGUUCUACAGUCCGACGAUCGAGACCGUGUGGUUUUUGUUCACCCGGGCCCCCCGUCUUCCUCCCUGUCCCCCCAUUUACCGGCAUAAAAUCCACUGUCUGCCAGCCUCCCUUCCCUCCCACCUUUUUGGUACAUUGGUGCAACAGAGGAUUGAGCAUCA
B22: chr12:96943601:96943709:+|CDS|ENSG00000139350|unk|total|mutant (ssRNA)
RNA: GGGAGUUCUACAGUCCGACGAUCAACUCAGUGUUUCCUCCAAGAAAAAAUCCAGUAACUUCAAGUACUUCAGUAUUGCAUUCCCGUCCUCUUAAUGUUUUUAUGGGAUCUCCAGGGAAAGAGGAAAAUGAAAACCGUGAUCUACAACAGAGGAUUGAGCAUCA

target: T1, UNK ZnF1-6 (called full-length); experiment: nsRBNS (natural sequence RNA bind-n-seq); RBNS binding buffer (assumed for nsRBNS): 25 mM Tris pH 7.5, 150 mM KCl, 3 mM MgCl2, 0.01% Triton X-100, 500 ug/ml BSA, 20 U/ml SUPERase-In, 4 C; UNK is unkempt and MSI1 is Musashi-1; names of the RNAs are library labels; protein concentration not given here; high values mean tight binding

| Binder | binding signal [enrichment R] |
| --- | --- |
| B1 | 0.797 |
| B2 | 0.495 |
| B3 | 0.379 |
| B4 | 0.797 |
| B5 | 0.569 |
| B6 | 0.355 |
| B7 | 0.311 |
| B8 | 1.08 |
| B9 | 1.53 |
| B10 | 1.05 |
| B11 | 0.69 |
| B12 | 0.502 |
| B13 | 0.292 |
| B14 | 0.381 |
| B15 | 0.474 |
| B16 | 0.591 |
| B17 | 0.593 |
| B18 | 0.413 |
| B19 | 0.574 |
| B20 | 0.714 |
| B21 | 1.47 |
| B22 | 0.336 |
